Assay results from PubChem BioAssay (NCATS).
Several values for one entry are separate records, joined by “and”; a condition that tells them apart may be missing. Equal entries are not always repeated. This list was built around the results that the source calls inconclusive (neither active nor inactive); the mix of calls is not that of the screen. For some of these results: Potencies of inconclusive entries are doubtful fits and often do not repeat. Activity calls are given as the source filed them. Calls come from the whole dose curve; as a rule, active = well fitted curve in the direction sought with a large enough effect; inconclusive = small, poorly fitted or top-dose-only effect, or another doubt; inactive = no such curve, though single readings can be large; an effect the other way counts as inactive or inconclusive.

What was measured:
[1] = qHTS of pediatric cancer cell lines to identify multiple opportunities for drug repurposing: Primary screen for SJ-GBM2 cells (AID 1347091); note: potency is the fitted concentration of half-maximal effect
In short: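 Cell viability, CellTiter-Glo luminescence; 500-1,000 cells/well, 8- or 11-point titration, 48 h compound exposure at 37 degrees C, 5% CO2. Controls: DMSO neutral, bortezomib 2.3 µM final as positive.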

[2] = qHTS of pediatric cancer cell lines to identify multiple opportunities for drug repurposing: Primary screen for SK-N-MC cells (AID 1347093); conditions: SK-N-MC viability, CellTiter-Glo luminescence, 48 h; activity change, negative = cytotoxic: at 46 µM (top of the series); note: potency is the fitted concentration of half-maximal effect
In short: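 Metabolically active cells were quantified by ATP-dependent luminescence (CellTiter-Glo, 15 min at room temperature) following 48 h treatment. Cells had been plated at 500-1,000 per well and settled for 5 h beforehand.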

[3] = qHTS of pediatric cancer cell lines to identify multiple opportunities for drug repurposing: Primary screen for BT-37 cells (AID 1347094); note: potency is the fitted concentration of half-maximal effect
In short: (§1)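 500-1,000 cells/well; 5 h pre-incubation 37 °C/5% CO2; compound pinned; 48 h; CellTiter-Glo, 15 min RT; luminescence. MIPE 11-pt from 0.78 nM, NPC 8-pt from 0.59 nM final. Bortezomib 2.3 µM final as positive control.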

[4] = qHTS of pediatric cancer cell lines to identify multiple opportunities for drug repurposing: Primary screen for NB-EBc1 cells (AID 1347095); note: potency is the fitted concentration of half-maximal effect
In short: as §1

[5] = qHTS of pediatric cancer cell lines to identify multiple opportunities for drug repurposing: Primary screen for Saos-2 cells (AID 1347097); note: nearly all actives have a fitted effect of over 40% in size; note: potency is the fitted concentration of half-maximal effect
In short: as §1

[6] = qHTS of pediatric cancer cell lines to identify multiple opportunities for drug repurposing: Primary screen for NB1643 cells (AID 1347099); note: potency is the fitted concentration of half-maximal effect; nearly all actives have a fitted effect of over 50% in size
In short: as §1

[7] = qHTS of pediatric cancer cell lines to identify multiple opportunities for drug repurposing: Primary screen for BT-12 cells (AID 1347101); note: potency is the fitted concentration of half-maximal effect; nearly all actives have a fitted effect of over 25% in size
In short: (§2)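 Cells (500-1,000/well) rested 5 h, then received compounds for 48 h; metabolically active cells were measured by CellTiter-Glo luminescence. Final concentrations spanned up to 46 µM (MIPE, 11-point) or 0.59 nM-46 µM (NPC, 8-point) in primary screens, 11-point in follow-ups.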

[8] = qHTS of pediatric cancer cell lines to identify multiple opportunities for drug repurposing: Primary screen for OHS-50 cells (AID 1347103); note: nearly all actives have a fitted effect of over 40% in size; note: potency is the fitted concentration of half-maximal effect
In short: as §2

[9] = qHTS of pediatric cancer cell lines to identify multiple opportunities for drug repurposing: Primary screen for MG 63 (6-TG R) cells (AID 1347105); conditions: MG 63 (6-TG R) viability, CellTiter-Glo, 48 h; activity change, negative = cytotoxic: at 46 µM (top of the series); note: potency is the fitted concentration of half-maximal effect; nearly all actives have a fitted effect of over 50% in size
In short: as §1

[10] = qHTS of pediatric cancer cell lines to identify multiple opportunities for drug repurposing: Primary screen for control Hh wild type fibroblast cells (AID 1347106); note: potency is the fitted concentration of half-maximal effect; nearly all actives have a fitted effect of over 55% in size
In short: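 Viability after 48 h compound treatment at 37C, 500-1,000 cells/well, read as ATP luminescence with CellTiter-Glo. Primary screens used 11-point (MIPE, 0.78 nM-46 µM) or 8-point (NPC, 0.59 nM-46 µM) final concentrations; follow-up screens used 11-point dilutions.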

[11] = qHTS of pediatric cancer cell lines to identify multiple opportunities for drug repurposing: Primary screen for Rh41 cells (AID 1347108); note: potency is the fitted concentration of half-maximal effect; nearly all actives have a fitted effect of over 70% in size
In short: as §1

[12] = qHTS of pediatric cancer cell lines to identify multiple opportunities for drug repurposing: Primary screen for SK-N-SH cells (AID 1347098); note: potency is the fitted concentration of half-maximal effect; nearly all actives have a fitted effect of over 65% in size
In short: as §2

[13] = qHTS of pediatric cancer cell lines to identify multiple opportunities for drug repurposing: Confirmatory screen for NB1643 cells (AID 1347109); conditions: NB1643 neuroblastoma cell viability; activity change, negative = cytotoxic: at 45.9 µM (top of the series); note: nearly all actives have a fitted effect of over 45% in size
In short: as §2

[14] = qHTS of pediatric cancer cell lines to identify multiple opportunities for drug repurposing: Primary screen for RD cells (AID 1347104); note: nearly all actives have a fitted effect of over 55% in size; note: potency is the fitted concentration of half-maximal effect
In short: as §1

[15] = qHTS of pediatric cancer cell lines to identify multiple opportunities for drug repurposing: Primary screen for Rh18 cells (AID 1347102); note: potency is the fitted concentration of half-maximal effect; nearly all actives have a fitted effect of over 65% in size
In short: as §2

[16] = qHTS of pediatric cancer cell lines to identify multiple opportunities for drug repurposing: Primary screen for Rh30 cells (AID 1347107); note: potency is the fitted concentration of half-maximal effect; nearly all actives have a fitted effect of over 75% in size
In short: as §2

[17] = qHTS of pediatric cancer cell lines to identify multiple opportunities for drug repurposing: Primary screen for U-2 OS cells (AID 1347096); note: potency is the fitted concentration of half-maximal effect; nearly all actives have a fitted effect of over 50% in size
In short: as §2

Measured: Potency
Tags give direction and shape of the fitted curve.

COc1cccc(N(C)C(=S)Oc2ccc3c(c2)CCCC3)n1
inconclusive: [1] 23.5 µM [cytotoxic, single point] | [2] 33.5 µM [cytotoxic, single point] and 10.5 µM [cytotoxic, full curve] | [4] 11.9 µM [cytotoxic, partial curve, poor fit] | [5] 29.9 µM [cytotoxic, single point] | [6] 18.7 µM [cytotoxic, partial curve] | [7] 34.7 µM [cytotoxic, single point] and 30.6 µM [cytotoxic, single point] | [8] 24.6 µM [cytotoxic, single point]
inactive: [3]

Cn1c(NCCN(CCO)CCCc2ccc([N+](=O)[O-])cc2)cc(=O)n(C)c1=O
inconclusive: [1] 26.4 µM [cytotoxic, single point] | [3] 30.6 µM [cytotoxic, single point] | [4] 18.7 µM [cytotoxic, partial curve] | [5] 18.7 µM [cytotoxic, partial curve] | [7] 27.3 µM [cytotoxic, single point] | [9] 18.7 µM [cytotoxic, partial curve, poor fit] | [10] 16.6 µM [cytotoxic, partial curve, poor fit] | [11] 37.2 µM [cytotoxic, partial curve, poor fit]

Cc1cccc(N(C)C(=S)Oc2ccc3ccccc3c2)c1
inactive: [13]
inconclusive: [1] 33.5 µM [cytotoxic, single point] and 13.2 µM [cytotoxic, partial curve] | [4] 33.5 µM [cytotoxic, single point] | [5] 23.7 µM [cytotoxic, single point] and 20.9 µM [cytotoxic, partial curve] | [12] 17.2 µM [cytotoxic, partial curve, poor fit] | [8] 30.6 µM [cytotoxic, single point]

O=C1C(c2c(O)[nH]c3ccccc23)=Nc2ccccc21
inconclusive: [1] 11.8 µM [cytotoxic, partial curve] | [3] 24.3 µM [cytotoxic, partial curve] | [4] 14.8 µM [cytotoxic, partial curve] | [5] 20.9 µM [cytotoxic, partial curve] | [12] 6.81 µM [cytotoxic, partial curve] | [7] 17.2 µM [cytotoxic, partial curve] | [14] 14.8 µM [cytotoxic, partial curve] | [9] 9.35 µM [cytotoxic, partial curve, poor fit] | [10] 1.87 µM [cytotoxic, full curve]
inactive: [8]
active: [2] 0.118 µM

CNC[C@@H](O)[C@@H](O)[C@H](O)[C@H](O)CO
inactive: [1] | [3] | [14]

COc1ccc(CCN(C)CCCC(C#N)(c2ccc(OC)c(OC)c2)C(C)C)cc1OC (configuration not stated)
inconclusive: [2] 48.1 µM [cytotoxic, partial curve, poor fit] | [5] 24.1 µM [cytotoxic, partial curve] | [12] 43.3 µM [cytotoxic, partial curve, poor fit] | [15] 1.5 µM [cytotoxic, partial curve] | [11] 27 µM [cytotoxic, partial curve]
inactive: [1] | [4]

CCc1c(O)cc(O)c(C(=O)c2ccc(OCCN3CCOCC3)c(OC)c2)c1CC(=O)N(CCOC)CCOC
active: [1] 1.18 µM | [3] 1.09 µM | [4] 4.18 µM | [6] 0.935 µM | [14] 0.526 µM
inconclusive: [5] 1.05 µM [cytotoxic, full curve] | [7] 3.06 µM [cytotoxic, full curve] | [8] 2.43 µM [cytotoxic, full curve] | [10] 2.35 µM [cytotoxic, full curve, poor fit] | [16] 2.64 µM [cytotoxic, full curve]

CN(C)c1ccccc1CN1CCCN(Cc2ccccc2N(C)C)C1c1ccncc1
inconclusive: [1] 23.5 µM [cytotoxic, single point] | [3] 27.3 µM [cytotoxic, single point] | [17] 18.7 µM [cytotoxic, partial curve, poor fit] | [5] 16.6 µM [cytotoxic, partial curve] | [12] 15.2 µM [cytotoxic, partial curve] | [6] 33.2 µM [cytotoxic, partial curve, poor fit] | [15] 18.7 µM [cytotoxic, partial curve] | [11] 20.9 µM [cytotoxic, partial curve]

C=C[C@@H]1CN2CCC1C[C@H]2[C@H](O)c1ccnc2ccc(OC)cc12 (some centres not stated)
inactive: [1] | [4] | [5]
inconclusive: [2] 37.2 µM [cytotoxic, single point] | [6] 37.2 µM [cytotoxic, single point] | [8] 27.3 µM [cytotoxic, single point]
